Some of the results follow. The full chains were built here from the parent and the listed change. Values near 0.05 are background.
B1: TEV protease; numbered along this chain (parent)
chain: MGESLFKGPRDYNPISSSICHLTNESDGHTTSLYGIGFGPFIITNKHLFRRNNGTLVVQSLHGVFKVKDTTTLQQHLVDGRDMIIIRMPKDFPPFPQKLKFREPQREERICLVTTNFQTKSMSSMVSDTSCTFPSGDGIFWKHWIQTKDGQCGSPLVSTRDGFIVGIHSASNFTNTNNYFTSVPKNFMELLTNQEAQQWVSGWRLNADSVLWGGHKVFMVKPEEPFQPVKEATQL

Variants of: B1
Experiment: raw area under fraction-flipped curve 0-4 h after induction (AUC4h, not background-subtracted), DNA-recorder readout of cleavage of the substrate (dimensionless); higher = more cleavage of the substrate by the protease variant
Details: temperature: 34 °C; time window: 0-4 h after rhamnose induction
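Note: Bxb1 expression induced with 0.2% (w/v) L-rhamnose at OD600 near 0.5, cultures sampled hourly, flipped fraction per protease–substrate barcode pair counted by paired-end Illumina sequencing.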

Variant: MGESLFKGPRDYNPISSSICHLTNESDGHTTSLYGIGFGPFIITNKHLFRRNNGTLVVQSLHGVFKVKDTTTLQQHLVDGRDMIIIRMPKDFPPFPQKLKFREPQREERICLVTTNFQTKSMSSMVSDTSCTFPSGVGIFWKHWIQTKDGQCGSPLVSTRDGFIVGIHSASNFTNTNNYFTSVPKNFMELLTNQEAQQWVSGWRLNADSVLWGGHKVFMVKPEEPFQPVKEATQL [D137V]
- area with substrate ENLYEQS: 0.0709
- area with substrate ENLYHQS: 0.0957
- area with substrate ENLYKQS: 0.0823
- area with substrate ENLYNQS: 0.0426
- area with substrate ENLYPQS: 0.0877
- area with substrate ENLYTQS: 0.0923
- area with substrate ENLYVQS: 0.146
- area with substrate ENLYWQS: 0.0954
- area with substrate ENLYYQS: 0.0555

Variant: MGESLFKGPRDYNPISSSICHLTNESDGHTTSLYGIGFGPFIITNKHLFRRNNGTLVVQSLHGVFKVKDTTTLQQHLVDGRDMIIIRMPKDFPPFPQKLKFREPQREERICLVTTNFQTKSMSSMVSDTSCTFWSGDGIFWKHWIQTKDGQCGSPLVSTRDGFIVGIHSASNFTNTNNYFTSVPKNFMELLTNQEAQQWVSGWRLNADSVLWGGHKVFMVKPEEPFQPVKEATQL [P134W]
- area with substrate ENLYEQS: 0.0626
- area with substrate ENLYGQS: 0.0573
- area with substrate ENLYHQS: 0.0571
- area with substrate ENLYIQS: 0.0831
- area with substrate ENLYKQS: 0.057
- area with substrate ENLYMQS: 0.0641
- area with substrate ENLYNQS: 0.0575
- area with substrate ENLYPQS: 0.0591
- area with substrate ENLYQQS: 0.0556
- area with substrate ENLYTQS: 0.079
- area with substrate ENLYVQS: 0.0605
- area with substrate ENLYWQS: 0.0583
- area with substrate ENLYYQS: 0.0627

Variant: MGESLFKGPRDYNPISSSICHLTNESDGHTTSLYGIGFGPFIITNKHLFRRNNGTLVVQSLHGVFKVKDTTTLQQHLVDGRDMIIIRMPKDFPPFPQKLKFREPQRLERICLVTTNFQTKSMSSMVSDTSCTFPSGDGIFWKHWIQTKDGQCGSPLVSTRDGFIVGIHSASNFTNTNNYFTSVPKNFMELLTNQEAQQWVSGWRLNADSVLWGGHKVFMVKPEEPFQPVKEATQL [E107L]
- area with substrate ENLYEQS: 0.11
- area with substrate ENLYGQS: 0.0586
- area with substrate ENLYHQS: 0.0774
- area with substrate ENLYQQS: 0.058
- area with substrate ENLYRQS: 0.0627
- area with substrate ENLYSQS: 0.0774
- area with substrate ENLYWQS: 0.0441
- area with substrate ENLYYQS: 0.0498

Variant: MGESLFKGPRDYNPISSSICHLTNESDGHTTSLYGIGFGPFIITNKHLFRRNQGTLVVQSLHGVFKVKDTTTLQQHLVDGRDMIIIRMPKDFPPFPQKLKFREPQREERICLVTTNFQTKSMSSMVSDTSCTFPSGDGIFWKHWIQTKDGQCGSPLVSTRDGFIVGIHSASNFTNTNNYFTSVPKNFMELLTNQEAQQWVSGWRLNADSVLWGGHKVFMVKPEEPFQPVKEATQL [N53Q]
- area with substrate ENLYDQS: 0.0547
- area with substrate ENLYEQS: 0.0683
- area with substrate ENLYGQS: 0.0668
- area with substrate ENLYHQS: 0.0623
- area with substrate ENLYIQS: 0.118
- area with substrate ENLYKQS: 0.0128
- area with substrate ENLYMQS: 0.0814
- area with substrate ENLYNQS: 0.0638
- area with substrate ENLYRQS: 0.0635
- area with substrate ENLYVQS: 0.0792
- area with substrate ENLYWQS: 0.0665
- area with substrate ENLYYQS: 0.0613

Variant: MGESLFKGPRDYNPISSSICHLTNESDGHTTSLYGIGFGPFIITNKHLFRRNNGTLVVQSLHGVFKVKDTTTLQQHLVDGRDMIIIRMPKDFPPFPQKLKFREPQREERIHLVTTNFQTKSMSSMVSDTSCTFPSGDGIFWKHWIQTKDGQCGSPLVSTRDGFIVGIHSASNFTNTNNYFTSVPKNFMELLTNQEAQQWVSGWRLNADSVLWGGHKVFMVKPEEPFQPVKEATQL [C111H]
- area with substrate ENLYEQS: 0.0746
- area with substrate ENLYHQS: 0.083
- area with substrate ENLYIQS: 0.124
- area with substrate ENLYKQS: 0.056
- area with substrate ENLYLQS: 0.0904
- area with substrate ENLYNQS: 0.0661
- area with substrate ENLYPQS: 0.119
- area with substrate ENLYRQS: 0.0712
- area with substrate ENLYSQS: 0.0697
- area with substrate ENLYVQS: 0.0968
- area with substrate ENLYWQS: 0.0807

Variant: MGESLFKGPRDYNPISSSICHLTNESDGHTTSLYGIGFGPFIITNKHLFRRNNGTLVVQSLHGVFKVKDTTTLQQHLVDGRDMIIIRMPKDFPPFPQKLKFREPQREERICLVTTNFQTKSMSSMVSDTSCTFPSGDGIFWKHWIQTKDGQCGSPLVSTRDGFIVGIHSASNFTNTNNYFTSVPKNFMELLTNQEAQQWVSGWRLNADSVLWGGHKVFMVKAEEPFQPVKEATQL [P222A]
- area with substrate ENLYDQS: 0.0601
- area with substrate ENLYEQS: 0.0628
- area with substrate ENLYGQS: 0.0692
- area with substrate ENLYHQS: 0.14
- area with substrate ENLYLQS: 0.0646
- area with substrate ENLYNQS: 0.0585
- area with substrate ENLYPQS: 0.0743
- area with substrate ENLYSQS: 0.0642
- area with substrate ENLYWQS: 0.0922
- area with substrate ENLYYQS: 0.0618

Variant: MGESLFKGPRDYNPISSSICHLTNESDGHTTSLYGIGFGPFIITNKHLFRRNNGTLVVQSLHGVFKVKDTTTLQQHLVDGRDMIIIRMPKDFPPFPQKLKFREPQREERICLVTTNFQTKSMSSMVSDLSCTFPSGDGIFWKHWIQTKDGQCGSPLVSTRDGFIVGIHSASNFTNTNNYFTSVPKNFMELLTNQEAQQWVSGWRLNADSVLWGGHKVFMVKPEEPFQPVKEATQL [T129L]
- area with substrate ENLYEQS: 0.0673
- area with substrate ENLYGQS: 0.0779
- area with substrate ENLYHQS: 0.072
- area with substrate ENLYIQS: 0.111
- area with substrate ENLYKQS: 0.0566
- area with substrate ENLYMQS: 0.0524
- area with substrate ENLYNQS: 0.0748
- area with substrate ENLYPQS: 0.0801
- area with substrate ENLYRQS: 0.0573
- area with substrate ENLYVQS: 0.133
- area with substrate ENLYWQS: 0.0536

Variant: MGESLFKGPRDYNPISSSICHLTNESDGHTTSLYGIGFGPFIITNKHLFRRNNGTLVVQSLHGVFKVKDTTTLQQHLVDGRDMIIIRMPKDFPPFPQPLKFREPQREERICLVTTNFQTKSMSSMVSDTSCTFPSGDGIFWKHWIQTKDGQCGSPLVSTRDGFIVGIHSASNFTNTNNYFTSVPKNFMELLTNQEAQQWVSGWRLNADSVLWGGHKVFMVKPEEPFQPVKEATQL [K98P]
- area with substrate ENLYEQS: 0.0634
- area with substrate ENLYGQS: 0.0657
- area with substrate ENLYHQS: 0.0665
- area with substrate ENLYIQS: 0.12
- area with substrate ENLYKQS: 0.0655
- area with substrate ENLYNQS: 0.0557
- area with substrate ENLYPQS: 0.068
- area with substrate ENLYQQS: 0.0651
- area with substrate ENLYSQS: 0.055
- area with substrate ENLYTQS: 0.0755
- area with substrate ENLYVQS: 0.125
- area with substrate ENLYYQS: 0.0858

Variant: MGESLFKGPRDYNPISSSICHLTNESDGHTTSLYGIGFGPFIITNKHLFRRNNGTLVVQSLHGVFKVADTTTLQQHLVDGRDMIIIRMPKDFPPFPQKLKFREPQREERICLVTTNFQTKSMSSMVSDTSCTFPSGDGIFWKHWIQTKDGQCGSPLVSTRDGFIVGIHSASNFTNTNNYFTSVPKNFMELLTNQEAQQWVSGWRLNADSVLWGGHKVFMVKPEEPFQPVKEATQL [K68A]
- area with substrate ENLYEQS: 0.0774
- area with substrate ENLYGQS: 0.0473
- area with substrate ENLYHQS: 0.062
- area with substrate ENLYIQS: 0.126
- area with substrate ENLYKQS: 0.0374
- area with substrate ENLYMQS: 0.0876
- area with substrate ENLYNQS: 0.0674
- area with substrate ENLYPQS: 0.0583
- area with substrate ENLYQQS: 0.0675
- area with substrate ENLYRQS: 0.062
- area with substrate ENLYSQS: 0.0829
- area with substrate ENLYTQS: 0.14
- area with substrate ENLYWQS: 0.0808
